Experimental data: PMC6919601, “Identification of Plasmodium dipeptidyl aminopeptidase allosteric inhibitors by high throughput screening” (PLoS ONE, 2019)
Screen size: about 110,000 compounds; about 230 (0.21%) showed an effect of 50% or more. This is one part of the list.

What follows are compounds tested against DPAP1 (Plasmodium falciparum, UniProt Q8IIJ9) (assay: primary screen, percent inhibition; read by cleavage of a fluorogenic dipeptide substrate; higher = more effect of the substance).
Design: species or system P. falciparum D10 trophozoite lysates; single well
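Note: 30 min substrate incubation versus DMSO and 10 µM JCP410 controls.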

DPAP1, sequence (Q8IIJ9 whole entry, looked up): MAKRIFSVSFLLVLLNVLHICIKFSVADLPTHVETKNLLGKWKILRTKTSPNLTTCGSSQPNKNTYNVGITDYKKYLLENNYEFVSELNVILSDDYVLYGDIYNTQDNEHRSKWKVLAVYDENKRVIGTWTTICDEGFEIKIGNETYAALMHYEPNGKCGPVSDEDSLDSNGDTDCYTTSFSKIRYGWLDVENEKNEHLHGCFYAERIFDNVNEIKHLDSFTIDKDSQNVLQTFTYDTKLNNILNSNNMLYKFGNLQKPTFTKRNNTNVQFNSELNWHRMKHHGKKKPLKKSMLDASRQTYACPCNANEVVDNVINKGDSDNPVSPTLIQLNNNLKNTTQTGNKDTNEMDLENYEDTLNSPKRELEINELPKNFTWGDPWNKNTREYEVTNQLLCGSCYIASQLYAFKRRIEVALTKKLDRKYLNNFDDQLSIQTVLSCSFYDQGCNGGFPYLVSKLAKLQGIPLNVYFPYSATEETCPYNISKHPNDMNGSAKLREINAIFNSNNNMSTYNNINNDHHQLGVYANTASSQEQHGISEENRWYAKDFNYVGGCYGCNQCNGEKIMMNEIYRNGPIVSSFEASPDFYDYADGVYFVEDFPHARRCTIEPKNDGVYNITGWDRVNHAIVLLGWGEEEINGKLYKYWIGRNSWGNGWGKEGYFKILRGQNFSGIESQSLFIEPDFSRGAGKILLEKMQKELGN

Compound | % Inhibition @ 10 uM [%]
COc1ccc(NC(=O)Nc2ccc(Oc3ccccc3)cc2)cc1OC | 0.161
CC(=O)c1cc2c(cc1NC(=O)c1cccc(Cl)c1)OCO2 | -1.61
c1ccc(-c2nnc3sc(-c4csc5c4CCCC5)nn23)cc1 | -3.64
CN(CCCNS(=O)(=O)c1ccc(-c2ccc(O)nn2)s1)Cc1ccccc1 | 2.42
COc1ccccc1C(=O)N/C(=C\c1ccccc1)C(=O)NCCC(=O)O | 2.09
COc1ccccc1C(=O)Nc1ccc2oc(-c3ccc(C(C)(C)C)cc3)nc2c1 | -4.02
Cc1ccc(-c2nc3ccccc3c(=O)n2-c2nccs2)cc1 | -4.16
Cc1cc(C(F)(F)F)nn1CC(=O)N1CCCc2ccccc21 | 0.0538
Cn1c(C(=O)NCCc2c[nH]c3ccccc23)cc2sccc21 | -3.08
COc1cc2c(cc1OC)C(C(=O)N1CCC(C)CC1)C(c1cccnc1)N(C)C2=O (centres unmarked) | 1.83
COc1ccccc1C(=O)Nc1ccccc1NC(=O)c1ccccc1OC | 1.83
C=CCn1c(CNC(=O)c2cc(OC)c(OC)c(OC)c2)nc2ccccc21 | 2.64
O=C(O)CCCCCCNC(=O)c1cncc(O)c1 | -1.15
COc1ccc2c(c1)CCc1sc(NC(=O)c3ccco3)nc1-2 | 4.84
Cc1cc(NC(=O)CSCc2nc(-c3cccc(Cl)c3)oc2C)no1 | -5.8
O=C(C(c1ccccc1)c1ccccc1)N1CCCC1 | 4.67
c1ccc(-c2cc(-c3ccccc3)n3nnnc3n2)cc1 | 1.33
CCOC(=O)C1=C(N)n2c(s/c(=C/c3ccccc3)c2=O)=C(C(=O)OCC)C1c1ccccc1 (centres unmarked) | -0.053
COCCCN(Cc1ccco1)C(=O)NCc1noc2ccccc12 | -10
O=C(C1=C(O)C(=O)N(c2ccccn2)C1c1ccccc1F)c1ccc(Cl)cc1 (centres unmarked) | 2.82
C=C1Cn2c(nc3sc4c(c3c2=O)CCCC4)S1 | 2.36
CC(C)c1ccc(C2C(C(=O)c3ccccc3)=C(O)C(=O)N2CC2CCCO2)cc1 (centres unmarked) | 2.49
CCC(=O)NC1=NC(=O)/C(=C/c2cn(C(=O)CC)nc2-c2ccccc2)S1 | 4.01
CCCc1nc2ccc(C)cc2c(C(=O)O)c1CC | -5.36
CC1(C)CC(=O)c2c(O)cc(=O)oc2C1 | -5.59

Compound | % Inhibition @ 10 uM [%]
Cc1ccc2oc3c(c(=O)c2c1)C(c1ccc(F)cc1)N(c1nccs1)C3=O (centres unmarked) | 2.1
CCOC(=O)c1cc(-c2nnc(-c3cccc(C)c3)o2)c(C)nc1C | 5.17
CCOC(=O)c1sc2ncn(CC(=O)N3CCOCC3)c(=O)c2c1C | -6.69
O=C(O)Cn1c(=O)c2cc3c(=O)n(CC(=O)O)c(=O)c3cc2c1=O | -1.29
COc1ccc(CNC(=O)c2sc3nc(-c4ccc(F)cc4)ccc3c2N)cc1 | 1.86
CCNC(=O)C1CCCN(S(=O)(=O)N2CCOCC2)C1 (centres unmarked) | -2.86
COc1ccc(C(=O)Nc2ccc(-c3nc4ccccc4o3)cc2)cc1 | 4.98
CC(=O)NCCc1ccc(S(=O)(=O)NCc2ccc3c(c2)OCO3)cc1 | -1.33
O=C(Nc1ccc(Oc2ccccc2)cc1)C(F)(F)F | -1.61
COc1ccccc1C(=O)N1CCN(C(=O)c2cc(OC)c(OC)c(OC)c2)CC1 | -2.26
O=C(CN1C(=O)S/C(=C/c2c[nH]c3ccccc23)C1=O)N1CCCC1 | 1.87
Cc1cccc(OCC(=O)Nc2ccc(S(=O)(=O)Nc3cc(C)on3)cc2)c1 | -14.4
CCSc1nc2n(n1)C(c1ccccc1C)C1=C(O)CCCC1=N2 (centres unmarked) | -3.45
Brc1ccc(CSc2nccn2Cc2ccccc2)cc1 | -0.233
Cc1cc(C)cc(NC(=O)C23CC4CC(C2)CC(n2cnc(Br)n2)(C4)C3)c1 | 2.43
Cc1ccccc1S(=O)Cc1ccc(C(=O)NCc2ccc(OC(C)C)cc2)o1 (centres unmarked) | -1.57
COc1ccc(CC(=O)Nc2sc3c(c2C(N)=O)CCCC3)cc1 | 2.13
CCc1ccc(CNCc2c(C(=O)O)c(C)n(Cc3ccccc3F)c2C)cc1 | -7.36
CCc1ccc(NC(=O)CCCOc2ccccc2C)cc1 | -1.92
COc1ccc(-c2onc3ccc4c5ccccc5oc4c23)cc1OC | -7.33
CCCOc1ccc(-c2csc3ncn(CCC)c(=O)c23)cc1 | -5.95
Cc1ccc(OCC(=O)Nc2cccc(Cl)c2)cc1C | -2.99
COCC(C)NCc1cc(F)ccc1F (centres unmarked) | 1.84
COCCCNC(=O)Cn1cc(C(=O)C2CC2)c2ccccc21 | 1.62
COc1ccc(OC)c([C@H]2NCC[C@@]3(O)CCCC[C@H]23)c1 | -3.62
